One assay deals with HSkMC. In words: cytotoxicity call (relative viability < 0.9). The following applies: 10 µM.
In a further assay the test system is HepG2. In words: cytotoxicity call (relative viability < 0.9). The following applies: 10 µM.
The next assay relates to S. aureus RN4220. In words: growth inhibition call (relative growth <= 0.2). The following applies: 50 µM.

SMILES strings stand for the structures. Some of the results follow.

As for `COc1ccc(CN(C)C[C@H]2OCCCC[C@@H](C)Oc3ccc(NS(=O)(=O)c4ccc(Cl)cc4)cc3C(=O)N([C@@H](C)CO)C[C@H]2C)cc1`, the cytotoxicity call with HSkMC was “inactive”. In addition, in the assay on HepG2, the cytotoxicity call was “active”. For the same molecule, the growth inhibition call in the assay on S. aureus RN4220 is “inactive”.
For `COc1ccc(S(=O)(=O)Nc2ccc3c(c2)C(=O)N([C@@H](C)CO)C[C@@H](C)[C@@H](CN(C)Cc2ccc4c(c2)OCO4)OCCCC[C@H](C)O3)cc1`, the cytotoxicity call in the assay on HSkMC and in the assay with HepG2 was “inactive” in each case. Further, in the assay with S. aureus RN4220, the growth inhibition call was “inactive”.
As for `O=C(O)CNC(=O)c1cc(=O)[nH]c(=O)[nH]1`, the cytotoxicity call in the assay with HSkMC and with HepG2 was “inactive” each time. Moreover, the growth inhibition call in the assay with S. aureus RN4220 is “inactive”.
`Cc1ccc(S(=O)(=O)Nc2ccc3c(c2)CC(=O)N([C@H](C)CO)C[C@H](C)[C@@H](CN(C)S(C)(=O)=O)O3)cc1`: the cytotoxicity call in the assay on HSkMC and with HepG2 was “inactive” throughout. In the assay with S. aureus RN4220, the growth inhibition call is “inactive”.
Turning to `C[C@@H]1CN([C@@H](C)CO)C(=O)c2cc(NS(=O)(=O)c3ccccc3)ccc2O[C@H]1CN(C)S(=O)(=O)c1ccccc1`, the cytotoxicity call in the assay with HSkMC and with HepG2 was “inactive” in each case. Besides, in the assay on S. aureus RN4220, the growth inhibition call is “inactive”.
As for `O=C(C[C@@H]1CC[C@H]2[C@@H](COC[C@H](O)CN2C(=O)c2cccnc2)O1)NCC1CC1`, the cytotoxicity call in the assay on HSkMC and with HepG2 was “inactive” each time. The growth inhibition call in the assay with S. aureus RN4220 was “inactive”.
Consider `CC1=CC(=O)N(c2ccn(C)n2)C1=O`, for which the cytotoxicity call with HSkMC and with HepG2 was “inactive” throughout. For the same molecule, the growth inhibition call in the assay on S. aureus RN4220 was “inactive”.
`C[C@@H]1CN([C@@H](C)CO)S(=O)(=O)c2ccc(C#Cc3ccncc3)cc2O[C@@H]1CN(C)C(=O)C1CCC1`: the cytotoxicity call in the assay on HSkMC and with HepG2 was “inactive” in each case. Besides, the growth inhibition call in the assay with S. aureus RN4220 is “inactive”.
For `CCOc1ccc(C(=O)Nc2ccc(N3CCN(C(=O)c4cccs4)CC3)c(Cl)c2)cc1Br`, the cytotoxicity call in the assay on HSkMC and with HepG2 was “inactive” throughout. Moreover, the growth inhibition call with S. aureus RN4220 is “inactive”.
Turning to `C[C@@H]1CN([C@@H](C)CO)C(=O)c2cccc(NC(=O)c3cnccn3)c2O[C@H]1CN(C)C(=O)Nc1ccc(F)cc1`, the cytotoxicity call in the assay with HSkMC and with HepG2 was “inactive” in each case. Besides, in the assay on S. aureus RN4220, the growth inhibition call is “inactive”.
Turning to `COc1cccc(-c2ccc3c(c2)O[C@H](CN(C)C(=O)C2CCC2)[C@H](C)CN([C@@H](C)CO)S3(=O)=O)c1`, the cytotoxicity call in the assay on HSkMC and with HepG2 was “inactive” throughout. Moreover, the growth inhibition call in the assay with S. aureus RN4220 was “inactive”.
On to `C[C@@H]1CN([C@H](C)CO)C(=O)c2cc(C3=CCCCC3)cnc2O[C@@H]1CN(C)S(=O)(=O)c1cn(C)cn1`, for which the cytotoxicity call with HSkMC and with HepG2 was “inactive” in each case. Besides, in the assay on S. aureus RN4220, the growth inhibition call is “inactive”.
As to `COc1cc2nccc(Oc3ccc(NC(=O)c4cn(C(C)C)c(=O)n(-c5ccc(F)cc5)c4=O)cc3F)c2cc1OC`, the cytotoxicity call with HSkMC and with HepG2 was “active” each time. For the same molecule, the growth inhibition call in the assay on S. aureus RN4220 was “inactive”.
As to `COc1ccc(S(=O)(=O)Nc2ccc3c(c2)C(=O)N([C@@H](C)CO)C[C@@H](C)[C@@H](CN(C)C(=O)Nc2cccc4ccccc24)OCCCC[C@@H](C)O3)cc1`, the cytotoxicity call in the assay with HSkMC and in the assay on HepG2 was “inactive” each time. Also, the growth inhibition call in the assay on S. aureus RN4220 is “inactive”.
With `CSCCC(N)C(=O)O` (stereo unspecified), the cytotoxicity call in the assay on HSkMC and in the assay on HepG2 was “inactive” throughout. Besides, the growth inhibition call in the assay with S. aureus RN4220 is “inactive”.
On to `COc1ccc(S(=O)(=O)N(C)C[C@@H]2OCCCC[C@@H](C)Oc3ccc(NC(=O)Nc4ccc5c(c4)OCO5)cc3C(=O)N([C@@H](C)CO)C[C@@H]2C)cc1`, for which the cytotoxicity call with HSkMC and in the assay on HepG2 was “inactive” each time. Besides, the growth inhibition call in the assay with S. aureus RN4220 was “inactive”.
In the case of `C[C@@H]1CCCCO[C@@H](CN(C)S(=O)(=O)c2ccc(Cl)cc2)[C@@H](C)CN([C@H](C)CO)C(=O)c2cc(NS(=O)(=O)c3ccccc3)ccc2O1`, the cytotoxicity call in the assay with HSkMC and with HepG2 was “inactive” in each case. Besides, the growth inhibition call in the assay on S. aureus RN4220 is “inactive”.
With `C[C@@H]1CN([C@H](C)CO)C(=O)c2cc(NC(=O)Cc3ccccc3)ccc2O[C@H]1CN(C)S(=O)(=O)c1cn(C)cn1`, the cytotoxicity call in the assay on HSkMC and in the assay with HepG2 was “inactive” throughout. In addition, the growth inhibition call in the assay on S. aureus RN4220 is “inactive”.
Turning to `C[C@@H]1CN([C@@H](C)CO)C(=O)c2cc(NC(=O)c3ccccc3)ccc2O[C@@H](C)CCCCO[C@@H]1CN(C)S(=O)(=O)c1ccccc1`, the cytotoxicity call in the assay with HSkMC and in the assay on HepG2 was “inactive” throughout. Further, the growth inhibition call in the assay with S. aureus RN4220 is “inactive”.
As for `C[C@@H]1CN([C@@H](C)CO)C(=O)c2cc(NC(=O)Nc3ccc(F)cc3)ccc2O[C@@H](C)CCCCO[C@H]1CN(C)C(=O)Nc1cccc2ccccc12`, the cytotoxicity call with HSkMC and with HepG2 was “inactive” throughout. For the same molecule, the growth inhibition call with S. aureus RN4220 is “inactive”.
For the molecule `COc1ccc(CN(C)C[C@H]2Oc3c(NC(=O)Nc4ccc(C(F)(F)F)cc4)cccc3C(=O)N([C@@H](C)CO)C[C@@H]2C)cc1`, the cytotoxicity call in the assay with HSkMC and with HepG2 was “inactive” each time. For the same molecule, in the assay on S. aureus RN4220, the growth inhibition call is “inactive”.
As to `COc1ccc(NC(=O)Nc2ccc3c(c2)C(=O)N([C@@H](C)CO)C[C@@H](C)[C@H](CN(C)C(=O)NC(C)C)OCCCC[C@H](C)O3)cc1`, the cytotoxicity call in the assay on HSkMC and with HepG2 was “inactive” each time. Besides, the growth inhibition call in the assay with S. aureus RN4220 is “inactive”.
As for `Cc1ccc(S(=O)(=O)[N-]Cl)cc1.[Na+]`, the cytotoxicity call in the assay with HSkMC and in the assay on HepG2 was “inactive” in each case. Also, in the assay on S. aureus RN4220, the growth inhibition call is “inactive”.
Regarding `C[C@H](CO)N1C[C@H](C)[C@@H](CN(C)C(=O)c2ccccc2)OCCCC[C@H](C)Oc2ccc(NC(=O)CCC(F)(F)F)cc2C1=O`, the cytotoxicity call in the assay with HSkMC and in the assay with HepG2 was “inactive” throughout. In addition, in the assay with S. aureus RN4220, the growth inhibition call was “inactive”.
Regarding `C[C@@H]1CCCCO[C@H](CN(C)C(=O)Nc2ccc(C(F)(F)F)cc2)[C@H](C)CN([C@@H](C)CO)C(=O)c2cc(NC(=O)Nc3ccc4c(c3)OCO4)ccc2O1`, the cytotoxicity call in the assay on HSkMC and in the assay on HepG2 was “inactive” in each case. The growth inhibition call with S. aureus RN4220 was “inactive”.
Turning to `CCCCC(CC)CCC(CC(C)C)OS(=O)(=O)[O-].[Na+]` (stereo unspecified), the cytotoxicity call with HSkMC and in the assay with HepG2 was “inactive” throughout. In addition, the growth inhibition call in the assay with S. aureus RN4220 is “inactive”.
Regarding `COc1ccc(CN2C[C@@H](C)[C@@H](OC)CN(C)C(=O)c3cc(NC(=O)c4nc5ccccc5s4)ccc3OC[C@H]2C)cc1`, the cytotoxicity call in the assay on HSkMC (human skeletal muscle cells) and in the assay on HepG2 was “inactive” throughout. The growth inhibition call in the assay with S. aureus RN4220 is “inactive”.
